# About 540 (0.36%) of roughly 150,000 compounds showed an effect of 50% or more. The list shows a part of the results.
# Tested on: Plasmodium falciparum
# Assay: Primary screen in NF54 nanoGlo assay, in single point, at 2uM, 72h; a lower Z score goes with more inhibition
# Format: functional, Erythrocyte
# Settings: timepoint 72 hour
SMILES,% Inhibition [%],Z score
Cc1noc(C)c1NC(=O)C1CCN(C(=O)c2ccco2)CC1,11,-1.71
O=C(c1ccc(-c2ccccc2)[nH]c1=O)N1CC[C@H](c2ccccc2F)C1,5,-0.69
C[C@H](NS(=O)(=O)c1cccc2nsnc12)c1nncn1C,-8,1.65
Cc1ccccc1NC(=O)[C@H]1C[C@H](F)CN1,-3,0.5
Cc1nn(C)cc1C(C)NC(=O)N1Cc2ccccc2N(C)CC1C (stereo not given),-6,1.16
CCCn1nnnc1COc1c(C)nn(C)c1C,-17,3.05
Cc1ccc(OCC(=O)N2C[C@H]3CC[C@@H](C2)N(C)C3=O)cc1C,-6,1.17
CCCCn1ncnc1C[C@H](C)n1ccnc1C,-6,0.79
Cc1ccc(S(=O)(=O)N2C[C@@H]3C[C@H](N(C)C)CN3C(=O)[C@@H]2C)cc1,-16,1.41
CN1CCC(N(Cc2ccncc2)Cc2coc(-c3ccccc3)n2)CC1,-4,0.55
O=C(Cn1nnc2ccccc2c1=O)N1CCN(C(=O)c2ccco2)CC1,-9,1.56
CCn1cc(C(=O)N2CCn3c(nn(CC)c3=O)[C@H]2c2ccccc2)cn1,-10,1.62
COc1cc(-c2nc(-c3ccc(F)cc3)c(-c3ccc(F)cc3)[nH]2)cc2c1OCO2,40,-5.17
Cc1cc(C)n(CCc2c(-c3ccccc3)ncn2[C@H](C)C(N)=O)n1,-7,1.32
CCCC1CCC(CNc2cnn(C)c2)CC1 (stereo not given),-4,0.59
COc1cccc(CN2CCC3(CCC(=O)N3Cc3ccc(F)cc3)CC2)n1,0,-0.01
N[C@@H]1c2ccccc2C[C@H]1NS(=O)(=O)N1CCCCCC1,-9,1.72
Cc1cccc(-n2ncnc2[C@@H](C)Cn2nc(C)nc2C)c1,13,-1.86
Cc1ccc2c(c1)C(NC(=O)CCCC(=O)N(C)C)C(C)C2 (stereo not given),-13,1.09
Cc1cc(CC(=O)NC(C)(C)CN(C)Cc2ccccc2)n[nH]1,-10,1.33
CC(C)(C)c1ccc(OCC2CCN(c3nnc(C4CC4)s3)CC2)nn1,-11,1.48
Nc1nccnc1C(=O)Nc1cn[nH]c1,-11,2.04

SMILES,% Inhibition [%],Z score
Cn1cc(S(=O)(=O)N2CCc3cnccc32)cn1,1,-0.16
CCOc1cc(-n2cnnn2)c(OCC)cc1NC(=O)c1cn(-c2ccc(F)cc2)nn1,-14,1.2
CCCN(CCC)C(=O)c1cncc(Br)c1,-9,0.93
Cc1cc(C(=O)N[C@@H]2C[C@H]3OCC[C@@H]23)cnc1C,-1,0.22
Cc1ccc(-c2nc(CNc3ncc(C#N)c(N)n3)[nH]c2-c2ccccn2)cc1,1,-0.21
O=C(c1ccc(Br)cc1-n1cncn1)N1CCNCC1,-9,1.18
CCOc1ccc(C2=C(CN3CCOCC3)[C@@H](c3ccc(F)cc3)c3ccccc3O2)cc1,-13,1.62
CN1C(=O)NC2(CCN(C(=O)C3c4ccccc4Oc4ccccc43)CC2)C1=O,5,-0.9
CCc1cc2c(NC34CCC3CN(C(=O)c3cnc(C)s3)C4)ncnc2s1 (stereo not given),8,-0.85
Cc1ccsc1[C@@H](O)CNC(=O)N1CCNC1=O,-1,0.19
O=C(COc1ccccc1)Nc1cnc(-n2cccn2)nc1,-11,1.65
O=C(NC1CCCCC1)c1ccc2ccccc2c1,-6,1.27
CC(=O)N(C)C1CCN(Cc2coc3ccccc23)CC1,-11,1.93
Cc1csc(C(=O)NCC[C@H](O)c2cccs2)c1,-13,1.87
CO[C@H]1C[C@H]2CC[C@@H](C1)N2Cc1c[nH]nc1-c1ccc(F)cc1,13,-1.69
Cc1cc2n(n1)[C@H](C(F)(F)F)CCN2C(=O)c1ncccc1C,-10,1.47
COc1ccc(-c2nc3cccnc3n2[C@H]2CCN(C(=O)Nc3ccc(C)c(F)c3)C2)cc1,-6,0.88
O=S(=O)(NCC[C@H]1CCCO1)c1ccccc1,1,-0.24
Cn1nccc1C(=O)N1CCC(Cc2ccc(COc3cccnc3)cc2)CC1,-19,3.67
O=C(O)[C@@H]1CCCN1C(=O)CC1CCC(C(F)(F)F)CC1 (stereo not given in full),-13,1.51
CN1C(=O)C(C)(C)c2cc(S(=O)(=O)N3CCC[C@H](C(=O)NCc4ccccc4Cl)C3)ccc21,-12,1.13
CN1CCN(c2ccccc2NC(=O)N2CCn3c(n[nH]c3=O)C2)CC1,-3,0.46

SMILES,% Inhibition [%],Z score
Cc1nc2cc(N(C)C(=O)c3ccccc3Cl)ccc2[nH]1,-8,1.31
COc1ccc(CN2CCN(C)CC23CCCCC3)c(OC)c1,14,-1.83
O=C(CN1CCOC1=O)N1CCC(CCC(=O)N2CCc3ccccc3C2)CC1,-5,0.95
O=C(Nc1nncs1)[C@@H]1CC=CCC1,-51,5.97
CCS(=O)(=O)N1CCC[C@H](n2c(C)cnc2C2CCOCC2)C1,-23,2.92
Cc1noc(C)c1NC(=O)CC[C@H]1CCCO1,-34,4
CN1CCN(C(=O)c2ccc3c(c2)N(Cc2ccc(F)cc2)C(=O)CO3)CC1,1,-0.2
COCCN(CCC(=O)N1CCOCC1)C(=O)c1cc(-c2ccccc2OC)on1,9,-1.09
CC(=O)Nc1ccc(-n2ccnc2-c2c(C)ccc3ncccc23)cc1,1,-0.14
Cc1nn2c(Nc3ccc(Cl)cc3)nc3ccccc3c2nc1=O,-15,1.61
COc1cccc(C2=C[C@@H](c3ccc(Cl)cc3Cl)N3N=CNC3=N2)c1,-3,0.28
CC1CCC(N(C[C@H]2CCCO2)C(=O)CC2(O)CCCC2)CC1 (stereo not given in full),-4,0.58
O=C(Cc1csc(NC(=O)c2ccco2)n1)NC(c1ccccc1)c1ccccc1,-7,1.29
c1ccc2c(c1)CC(NCc1ccc3c(c1)OCO3)C2,-11,2.13
CN(Cc1ncnn1Cc1c(F)cccc1Cl)[C@H]1CCS(=O)(=O)C1,-16,3.05
CNC[C@@H]1C[C@H](F)CN1c1nc(C)c(C)s1,-6,0.63
C[C@@H](NC(=O)c1cc(-c2ccccc2)n[nH]1)c1nnc2ccccn12,5,-0.68
CC(CNC(C)c1cnn(C(C)C)c1)c1ccsc1 (stereo not given),-10,1.81
O=C(c1ccc(F)c(Cl)c1)N1CCC(n2cnnc2C2CC2)CC1,-9,1.63
Cc1cc(C(=O)N(Cc2ccccc2)CC2(O)CCCC2)[nH]n1,2,-0.27
CCOC(=O)N1CCN(C(=O)CCc2n[nH]c(-c3ccc(OCCOC)c(OC)c3)nc2=O)CC1,-13,1.36
O=S(=O)(NC1(c2ccccc2F)CC1)c1cccnc1,-6,0.75

SMILES,% Inhibition [%],Z score
Cc1nc(C)n(CCCNC(=O)Nc2ccc3c(c2)N(C)C(=O)[C@H](C)O3)n1,-5,0.5
Cc1c(NC(=O)COC(=O)Cc2ccc(Cl)cc2)c(=O)n(-c2ccccc2)n1C,-5,0.89
CC(C)(C)c1cc(NC(=O)CCCc2ccccc2)n([C@H]2CCS(=O)(=O)C2)n1,-2,0.38
CCN(Cc1nccn1C)C(=O)c1cc(C(C)(C)C)nc(=O)[nH]1,13,-1.72
NC(=O)C1CN(C(=O)CC2CC3CCC2C3)CCN1C1CC1 (stereo not given),-5,0.78
CCc1ncc(NC(=O)N2CCN(CC(F)(F)F)C[C@H](C)C2)cn1,2,-0.35
O=C(c1cc2cc(F)ccc2[nH]1)N1CCC(CO)(CCCc2ccccc2)CC1,-9,1.08
O=C(NCCCc1ccccc1)[C@@]1(CCO)CC12CCOCC2,10,-2.01
CNC(=O)c1[nH]nc2c1CN(Cc1coc(-c3ccccc3)n1)CC2,-13,2.08
CC1CN(Cc2nc(-c3cccs3)no2)C(C)CO1 (stereo not given),-5,0.94
CC(C)c1cc(C(=O)N2CCN(c3cccc(Cl)c3)CC2)nc2ccnn12,-4,0.68
O=C(NCc1ccc2occc2c1)NC1CCOC2(CCS(=O)(=O)C2)C1 (stereo not given),-7,0.87
Cn1cc(-c2ccc(F)cc2)c2nc[nH]c(=O)c21,36,-4.12
Cc1nc(C2(NCC(=O)Nc3ccc(F)cc3F)CCC2)no1,-14,1.79
CC(=C(F)C(=O)N(CCCO)C(C)C)C1CC1,4,-0.65
Cc1c(C(=O)N2CCCCCC2)sc2ncc(C(=O)N3CCCCCC3)cc12,3,-0.57
CCN(Cc1cnn(CC)c1)C[C@]1(O)CCCN2CCCC[C@@H]21,-13,1.76
Cc1nccn1Cc1ccccc1NC(=O)[C@@H](N)Cc1c[nH]c2ccccc12,-9,1.04
COCCN1C[C@@H](Cc2cc(C)cc(C)n2)CC1=O,-12,1.27
